# Experimental data from the supplement of paper PMC3334620.
# The full ranking holds about 33,000 sequences; the median of “E-score (-0.5 to 0.5)” is about -0.011, and the highest 2% start at about 0.28. The list shows a part of the results.
# Biological target: T1, Gcr1 (UniProt P07261)
# T1 sequence: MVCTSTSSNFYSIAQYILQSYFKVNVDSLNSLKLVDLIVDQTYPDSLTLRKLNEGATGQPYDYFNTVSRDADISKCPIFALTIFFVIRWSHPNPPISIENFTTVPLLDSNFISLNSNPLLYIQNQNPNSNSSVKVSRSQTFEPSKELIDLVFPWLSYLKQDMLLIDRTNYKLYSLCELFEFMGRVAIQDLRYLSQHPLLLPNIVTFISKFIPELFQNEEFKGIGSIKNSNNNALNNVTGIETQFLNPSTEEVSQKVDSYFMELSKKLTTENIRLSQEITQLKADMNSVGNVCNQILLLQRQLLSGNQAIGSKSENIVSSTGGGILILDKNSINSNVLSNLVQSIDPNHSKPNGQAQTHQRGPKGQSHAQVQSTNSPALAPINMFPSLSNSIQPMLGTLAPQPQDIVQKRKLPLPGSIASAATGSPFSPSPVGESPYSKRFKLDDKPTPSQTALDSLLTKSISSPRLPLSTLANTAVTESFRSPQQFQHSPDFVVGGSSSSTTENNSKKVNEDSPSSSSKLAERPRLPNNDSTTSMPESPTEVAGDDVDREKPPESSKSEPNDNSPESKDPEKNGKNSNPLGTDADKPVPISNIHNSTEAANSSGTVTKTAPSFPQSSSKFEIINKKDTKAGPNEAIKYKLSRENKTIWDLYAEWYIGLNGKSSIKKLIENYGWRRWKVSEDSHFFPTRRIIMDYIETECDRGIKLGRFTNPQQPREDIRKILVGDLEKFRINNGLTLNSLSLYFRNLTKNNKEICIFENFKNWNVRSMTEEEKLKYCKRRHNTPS
# Assay: PBM E-score (8-mer binding enrichment) (E-score (-0.5 to 0.5)); higher = stronger / more preferred TF binding; most listed sequences are background and not binding sites
# Settings: protein concentration: 100 nM; construct: GST-full length
# Procedure: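 Universal 'all 10-mer' protein binding microarrays (Agilent AMADID 015681) probed with GST-tagged S. cerevisiae TFs (full-length or DBD) made by in vitro transcription/translation (PURExpress), about 100-200 nM. Bound TF was detected with fluorescent anti-GST. Each ungapped 8-mer (which stands for itself and its reverse complement) is scored by the PBM enrichment score (E-score), a modified Wilcoxon-Mann-Whitney statistic from -0.5 to +0.5, computed with the Universal PBM Analysis Suite. Scale: above 0.35 generally sequence-specific binding.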
row,Sequence,PBM E-score
1,ACGCGCCG,0.0475
2,AATCCATG,0.00781
3,AACAGTTA,0.224
4,CCGCGAAC,-0.209
5,AGAGGAGC,0.00804
6,CACCCGTA,-0.113
7,ACTTCATG,0.0318
8,ATCGTCCG,-0.109
9,AAATTCAT,-0.0462
10,AGCCCTAT,0.00431
11,CTTACACC,-0.13
12,AAAAACAT,-0.0212
13,CTTGGACA,0.0367
14,ACCCCTAC,0.0631
15,AATAGGTG,0.185
16,ACACCCGC,-0.0742
17,AAGTATTA,0.0171
18,GACCAAAC,-0.233
19,GCTCAGCA,-0.0633
20,TAGTCCGA,-0.214
21,AGCCGGAT,0.0709
22,CGTACTAC,-0.0841

row,Sequence,PBM E-score
1,AATCTGGT,0.281
2,CACAACAA,0.00775
3,AAACTTTA,0.153
4,CAAGTGGA,0.181
5,CCTGAGGA,0.173
6,CAGTCGCC,0.0419
7,TGAACCCA,0.0317
8,AGTTTTTA,0.00042
9,AGATTCAT,-0.042
10,AGGAAGCA,0.13
11,CGTAGAAA,0.027
12,GAAACTTA,0.184
13,ACGTAGGG,-0.0453
14,GCTTCGAC,-0.103
15,AGTCAGGG,-0.108
16,ACTATGTC,0.0549
17,AGCCTTGC,-0.146
18,ATAGGCTG,-0.0658
19,CCAAATGG,0.184
20,CGGTTCGC,-0.0757
21,AAGGCGTA,0.0455
22,AATTTAGT,0.182

row,Sequence,PBM E-score
1,AGATGGAA,-0.00047
2,TGCGGCCA,-0.0217
3,GTGGTTGA,0.0768
4,GAGGATCA,-0.214
5,CGAGCAGC,0.107
6,AGGACTTA,-0.244
7,CCTGCATA,-0.0109
8,CCCAGTAC,0.0549
9,AATGGGTA,-0.0165
10,GCCCCTCC,0.151
11,CGCGGATC,-0.068
12,CGCACAGC,-0.133
13,AACGGTAT,-0.0407
14,GGTAAACA,0.028
15,AAATCTGG,0.292
16,AGCTGAAC,0.0737
17,AAGGGGGC,-0.0954
18,AGTGAAGC,0.0364
19,ATGGGGAA,0.192
20,GTGATCAC,0.183
21,AATCGACC,-0.0725
22,AGTTCCCC,0.105

row,Sequence,PBM E-score
1,AAAGCATC,0.216
2,TACTCGAA,0.0843
3,AAGTAAGG,-0.0793
4,ATCGTAGG,-0.0574
5,CACCAGTC,-0.02
6,GCGACACA,-0.0641
7,CGTAGATA,-0.0503
8,CCGGGCAA,-0.0158
9,AGATTGCA,-0.177
10,ACTGTGGG,-0.192
11,ATATAATG,-0.137
12,CGAGTGAC,0.0417
13,GAGTAGCC,-0.107
14,TCCTTTAA,0.185
15,CCCGCGTC,0.174
16,GTGTCGCA,-0.113
17,AATGTGCC,-0.315
18,GGGAGACA,0.00118
19,CCGCGAGC,-0.0368
20,GCGTTACC,-0.0245
